Paper PMC7763487 (2020)
No constants are given. Whether binding was seen depends on the method and setting. In cells and extracts the contact can be indirect. Some entries that bind do so weakly or less than the wild type. Tags and fused reporters may be left off the sequences shown.

The chains behind the UniProt entries cited, without tags or fusion partners. Where a name states a change or a piece, a line headed by the entry shows the natural chain unless it says otherwise. A line that says so, or that is headed by a name, gives the form on record, which may keep a tag or linker. Residues count along the entry.
UniProt Q3URK3: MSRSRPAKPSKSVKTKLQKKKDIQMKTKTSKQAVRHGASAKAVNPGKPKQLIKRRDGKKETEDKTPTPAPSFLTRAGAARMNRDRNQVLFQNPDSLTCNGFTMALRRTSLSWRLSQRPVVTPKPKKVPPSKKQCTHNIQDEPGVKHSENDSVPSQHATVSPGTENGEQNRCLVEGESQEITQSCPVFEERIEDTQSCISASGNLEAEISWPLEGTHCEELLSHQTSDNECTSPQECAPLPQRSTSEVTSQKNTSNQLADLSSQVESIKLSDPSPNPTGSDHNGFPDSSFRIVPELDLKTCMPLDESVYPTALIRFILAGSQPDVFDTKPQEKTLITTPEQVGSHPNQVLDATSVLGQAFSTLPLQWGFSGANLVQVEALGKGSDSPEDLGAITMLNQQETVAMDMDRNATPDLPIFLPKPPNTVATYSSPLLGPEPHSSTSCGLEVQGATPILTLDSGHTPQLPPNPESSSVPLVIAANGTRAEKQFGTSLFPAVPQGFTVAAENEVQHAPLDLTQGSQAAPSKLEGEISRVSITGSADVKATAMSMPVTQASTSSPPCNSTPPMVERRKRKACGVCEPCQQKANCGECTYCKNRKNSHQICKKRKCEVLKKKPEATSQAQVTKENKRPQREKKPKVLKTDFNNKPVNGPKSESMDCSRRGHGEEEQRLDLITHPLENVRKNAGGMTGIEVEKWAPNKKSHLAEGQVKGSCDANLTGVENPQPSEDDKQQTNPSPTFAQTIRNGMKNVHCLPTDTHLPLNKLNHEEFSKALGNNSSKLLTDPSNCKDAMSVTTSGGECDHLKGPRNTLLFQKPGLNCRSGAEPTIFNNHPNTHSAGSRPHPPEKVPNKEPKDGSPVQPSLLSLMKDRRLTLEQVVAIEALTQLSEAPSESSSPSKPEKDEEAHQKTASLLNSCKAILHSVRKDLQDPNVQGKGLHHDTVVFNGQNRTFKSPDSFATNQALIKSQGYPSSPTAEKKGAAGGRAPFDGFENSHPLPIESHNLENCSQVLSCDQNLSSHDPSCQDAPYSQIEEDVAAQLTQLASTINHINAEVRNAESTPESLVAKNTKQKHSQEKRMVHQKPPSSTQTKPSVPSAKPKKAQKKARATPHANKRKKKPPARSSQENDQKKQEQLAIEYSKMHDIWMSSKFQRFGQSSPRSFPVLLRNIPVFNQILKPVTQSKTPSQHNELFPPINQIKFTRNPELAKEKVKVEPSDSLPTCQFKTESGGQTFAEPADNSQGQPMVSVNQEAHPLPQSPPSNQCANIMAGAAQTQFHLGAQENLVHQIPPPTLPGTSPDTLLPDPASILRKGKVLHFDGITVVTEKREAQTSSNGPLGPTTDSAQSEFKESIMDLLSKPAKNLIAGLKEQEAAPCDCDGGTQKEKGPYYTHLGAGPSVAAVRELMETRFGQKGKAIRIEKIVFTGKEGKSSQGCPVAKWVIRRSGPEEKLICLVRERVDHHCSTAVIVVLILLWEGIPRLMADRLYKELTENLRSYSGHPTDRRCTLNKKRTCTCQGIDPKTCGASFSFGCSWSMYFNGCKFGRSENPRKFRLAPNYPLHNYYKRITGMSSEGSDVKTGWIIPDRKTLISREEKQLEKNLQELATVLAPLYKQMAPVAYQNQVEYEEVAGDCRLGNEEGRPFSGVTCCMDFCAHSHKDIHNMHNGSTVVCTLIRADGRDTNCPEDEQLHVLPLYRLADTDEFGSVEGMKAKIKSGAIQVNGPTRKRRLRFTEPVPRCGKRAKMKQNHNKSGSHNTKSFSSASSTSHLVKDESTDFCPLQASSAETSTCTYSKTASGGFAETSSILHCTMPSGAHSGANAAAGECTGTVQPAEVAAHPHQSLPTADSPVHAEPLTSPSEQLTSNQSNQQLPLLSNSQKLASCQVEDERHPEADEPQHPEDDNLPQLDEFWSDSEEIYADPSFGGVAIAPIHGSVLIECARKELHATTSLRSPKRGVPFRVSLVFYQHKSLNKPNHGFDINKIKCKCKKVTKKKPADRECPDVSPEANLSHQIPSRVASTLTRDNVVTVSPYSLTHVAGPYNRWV
(Flag)3-TET1 1–1494 (WT): residues 1-1494 of Q3URK3
(Flag)3-TET1 1–1472 (WT): residues 1-1472 of Q3URK3
(Flag)3-TET1 1–1379 (WT): residues 1-1379 of Q3URK3
(Flag)3-TET1 734–2039: residues 734-2039 of Q3URK3
(Flag)3-TET1 734–1229: residues 734-1229 of Q3URK3
(Flag)3-TET1 734–1181: residues 734-1181 of Q3URK3
(Flag)3-TET1(734–1169): residues 734-1169 of Q3URK3
(Flag)3-TET1 734–1131: residues 734-1131 of Q3URK3
(Flag)3-TET1 1–1379 Δ1+2 (Q3URK3, form named): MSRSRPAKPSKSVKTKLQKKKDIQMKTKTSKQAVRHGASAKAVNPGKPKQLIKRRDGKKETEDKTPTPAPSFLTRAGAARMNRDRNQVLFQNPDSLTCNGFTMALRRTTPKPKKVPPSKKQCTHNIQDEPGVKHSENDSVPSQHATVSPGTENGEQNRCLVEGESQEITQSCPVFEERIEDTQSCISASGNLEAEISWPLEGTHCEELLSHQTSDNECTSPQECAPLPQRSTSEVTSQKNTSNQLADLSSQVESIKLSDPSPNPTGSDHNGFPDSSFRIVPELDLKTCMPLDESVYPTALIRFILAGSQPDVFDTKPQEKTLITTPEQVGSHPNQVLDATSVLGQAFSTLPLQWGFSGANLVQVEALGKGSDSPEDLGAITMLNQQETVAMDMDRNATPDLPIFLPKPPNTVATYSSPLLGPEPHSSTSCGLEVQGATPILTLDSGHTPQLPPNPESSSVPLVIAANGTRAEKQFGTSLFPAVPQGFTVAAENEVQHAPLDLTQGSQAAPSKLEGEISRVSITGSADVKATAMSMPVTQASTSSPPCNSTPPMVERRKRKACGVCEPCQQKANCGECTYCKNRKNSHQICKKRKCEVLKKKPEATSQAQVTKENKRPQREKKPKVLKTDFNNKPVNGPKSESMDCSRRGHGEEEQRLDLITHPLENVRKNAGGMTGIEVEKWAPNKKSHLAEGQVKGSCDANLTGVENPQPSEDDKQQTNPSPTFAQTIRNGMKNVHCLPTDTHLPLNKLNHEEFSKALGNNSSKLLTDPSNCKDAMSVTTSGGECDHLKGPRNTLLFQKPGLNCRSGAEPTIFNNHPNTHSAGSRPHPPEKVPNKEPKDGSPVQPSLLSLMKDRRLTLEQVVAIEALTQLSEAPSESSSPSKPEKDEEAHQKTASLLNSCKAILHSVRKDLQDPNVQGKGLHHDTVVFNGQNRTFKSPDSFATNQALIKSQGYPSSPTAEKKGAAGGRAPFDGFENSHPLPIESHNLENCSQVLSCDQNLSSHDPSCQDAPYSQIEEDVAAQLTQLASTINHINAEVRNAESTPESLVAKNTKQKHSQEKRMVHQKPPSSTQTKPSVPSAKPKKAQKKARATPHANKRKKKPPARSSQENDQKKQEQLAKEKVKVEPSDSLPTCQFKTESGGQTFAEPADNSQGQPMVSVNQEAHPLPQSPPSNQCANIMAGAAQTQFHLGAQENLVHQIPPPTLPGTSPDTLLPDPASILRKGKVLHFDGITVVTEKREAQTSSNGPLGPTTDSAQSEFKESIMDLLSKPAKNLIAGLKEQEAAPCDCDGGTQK
(Flag)3-TET1 full-length Δ1733-1901 (lacking the low-complexity insert) (Q3URK3, form named): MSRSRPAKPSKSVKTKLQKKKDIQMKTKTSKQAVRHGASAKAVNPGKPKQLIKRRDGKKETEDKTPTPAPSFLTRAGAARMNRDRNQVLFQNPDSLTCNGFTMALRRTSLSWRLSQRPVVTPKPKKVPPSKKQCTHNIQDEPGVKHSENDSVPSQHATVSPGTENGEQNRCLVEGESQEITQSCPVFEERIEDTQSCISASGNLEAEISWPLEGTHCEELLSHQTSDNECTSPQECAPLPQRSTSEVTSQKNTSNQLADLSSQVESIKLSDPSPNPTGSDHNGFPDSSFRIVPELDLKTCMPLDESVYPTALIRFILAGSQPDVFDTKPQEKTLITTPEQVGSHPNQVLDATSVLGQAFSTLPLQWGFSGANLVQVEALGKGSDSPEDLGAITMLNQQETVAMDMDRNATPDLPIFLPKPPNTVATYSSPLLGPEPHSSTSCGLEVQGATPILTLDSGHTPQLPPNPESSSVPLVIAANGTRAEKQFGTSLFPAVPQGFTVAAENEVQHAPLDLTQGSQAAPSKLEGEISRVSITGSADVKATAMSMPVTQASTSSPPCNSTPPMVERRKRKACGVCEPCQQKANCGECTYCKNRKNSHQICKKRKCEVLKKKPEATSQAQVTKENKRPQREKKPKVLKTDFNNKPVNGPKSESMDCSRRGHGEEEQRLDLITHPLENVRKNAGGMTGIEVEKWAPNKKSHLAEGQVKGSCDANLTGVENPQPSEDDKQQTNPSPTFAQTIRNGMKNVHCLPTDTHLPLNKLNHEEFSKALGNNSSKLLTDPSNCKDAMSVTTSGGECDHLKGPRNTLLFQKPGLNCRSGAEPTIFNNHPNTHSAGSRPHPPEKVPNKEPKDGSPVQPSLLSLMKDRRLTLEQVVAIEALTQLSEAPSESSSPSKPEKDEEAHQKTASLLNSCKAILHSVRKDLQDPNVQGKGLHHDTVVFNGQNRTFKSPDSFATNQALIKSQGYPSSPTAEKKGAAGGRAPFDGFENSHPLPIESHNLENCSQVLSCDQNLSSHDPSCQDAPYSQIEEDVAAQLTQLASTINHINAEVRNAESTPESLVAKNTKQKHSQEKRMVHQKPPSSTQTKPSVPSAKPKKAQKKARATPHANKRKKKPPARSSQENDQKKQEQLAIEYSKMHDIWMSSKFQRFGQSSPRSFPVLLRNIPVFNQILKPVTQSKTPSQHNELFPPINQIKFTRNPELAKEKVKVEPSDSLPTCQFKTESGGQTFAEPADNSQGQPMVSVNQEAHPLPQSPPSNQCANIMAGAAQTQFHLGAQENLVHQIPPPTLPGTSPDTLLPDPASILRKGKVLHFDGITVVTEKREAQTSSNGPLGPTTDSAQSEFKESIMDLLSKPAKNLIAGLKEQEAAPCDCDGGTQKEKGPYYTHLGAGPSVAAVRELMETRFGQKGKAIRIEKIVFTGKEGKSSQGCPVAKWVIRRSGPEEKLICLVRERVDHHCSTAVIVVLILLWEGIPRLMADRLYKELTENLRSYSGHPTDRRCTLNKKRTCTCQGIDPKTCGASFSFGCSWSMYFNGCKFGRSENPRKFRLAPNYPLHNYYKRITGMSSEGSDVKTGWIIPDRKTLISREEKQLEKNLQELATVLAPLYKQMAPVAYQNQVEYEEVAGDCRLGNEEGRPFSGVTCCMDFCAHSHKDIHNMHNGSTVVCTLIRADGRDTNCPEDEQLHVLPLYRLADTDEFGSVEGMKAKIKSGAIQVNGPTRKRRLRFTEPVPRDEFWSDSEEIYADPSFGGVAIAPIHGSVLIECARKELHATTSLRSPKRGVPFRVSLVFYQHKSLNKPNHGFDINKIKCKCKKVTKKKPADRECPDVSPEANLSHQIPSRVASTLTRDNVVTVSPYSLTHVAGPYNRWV

Key:
Assay in all cases: co-IP; (Flag)3-TET1 constructs and (HA)3-NANOG constructs expressed together in E14/T ESCs; Benzonase-treated nuclear protein extracts (350 mM KCl); TET1 immunoprecipitated by its Flag tag, immunoblot; for TET1(734–1169) also after phosphatase treatment of the extracts
[1] = molecular target: (Flag)3-TET1 1–1379 (WT) (mouse) (UniProt Q3URK3)
[2] = molecular target: (Flag)3-TET1 1–1379 Δ1+2 (mouse) (UniProt Q3URK3)
[3] = molecular target: (Flag)3-TET1 1–1472 (WT) (mouse) (UniProt Q3URK3)
[4] = molecular target: (Flag)3-TET1 1–1494 (WT) (mouse) (UniProt Q3URK3)
[5] = molecular target: (Flag)3-TET1 734–1131 (mouse) (UniProt Q3URK3)
[6] = molecular target: (Flag)3-TET1 734–1181 (mouse) (UniProt Q3URK3)
[7] = molecular target: (Flag)3-TET1 734–1229 (mouse) (UniProt Q3URK3)
[8] = molecular target: (Flag)3-TET1 734–2039 (mouse) (UniProt Q3URK3)
[9] = molecular target: (Flag)3-TET1 full-length Δ1733-1901 (lacking the low-complexity insert) (mouse) (UniProt Q3URK3)
[10] = molecular target: (Flag)3-TET1(1–1547) Δ1+2 (Δ109-120 + Δ1132-1202) (mouse) (UniProt Q3URK3)
[11] = molecular target: (Flag)3-TET1(734–1169) (mouse) (UniProt Q3URK3)

binding [1]: binds weakly
binding [2]: no binding
binding [3]: binds weakly
binding [4]: binds weakly
binding [5]: no binding
binding [6]: binds
binding [7]: binds
binding [8]: binds
binding [9]: binds
binding [10]: binds
binding [11]: binds
B1: (HA)3-NANOG (protein, UniProt Q80Z64 1-305)
chain: MSVGLPGPHSLPSSEEASNSGNASSMPAVFHPENYSCLQGSATEMLCTEAASPRPSSEDLPLQGSPDSSTSPKQKLSSPEADKGPEEEENKVLARKQKMRTVFSQAQLCALKDRFQKQKYLSLQQMQELSSILNLSYKQVKTWFQNQRMKCKRWQKNQWLKTSNGLIQKGSAPVEYPSIHCSYPQGYLVNASGSLSMWGSQTWTNPTWSSQTWTNPTWNNQTWTNPTWSSQAWTAQSWNGQPWNAAPLHNFGEDFLQPYVQLQQNFSASDLEVNLEATRESHAHFSTPQALELFLNYSVTPPGEI
